Measurements: PubChem BioAssay AID2675 (National Center for Advancing Translational Sciences (NCATS), 2010)
The whole screen tested about 280,000 compounds, of which about 100 (0.036%) were called active. This list was built around the results that the source calls inconclusive (neither active nor inactive); the mix of calls is not that of the screen. The call rests on the fitted dose curve; in most records, active means well fitted inhibition curve with a large enough effect in the signal ratio, with a control signal flat (not every such curve was filed as active); inconclusive means small, poorly fitted or top-dose-only effect, or effect the other way, or a change in a side signal; inactive means no such curve, though single readings can be large or run the other way; the % refers to the signal ratio. Where the call is inconclusive, the potency comes from a doubtful curve fit. A note “side channel” means that the fit belongs to a control or component signal, not to the main read-out.

Biological target: Muscleblind-like protein 1 (Homo sapiens) (UniProt Q9NR56)
Chain of UniProt Q9NR56 (Q9NR56 whole entry, looked up): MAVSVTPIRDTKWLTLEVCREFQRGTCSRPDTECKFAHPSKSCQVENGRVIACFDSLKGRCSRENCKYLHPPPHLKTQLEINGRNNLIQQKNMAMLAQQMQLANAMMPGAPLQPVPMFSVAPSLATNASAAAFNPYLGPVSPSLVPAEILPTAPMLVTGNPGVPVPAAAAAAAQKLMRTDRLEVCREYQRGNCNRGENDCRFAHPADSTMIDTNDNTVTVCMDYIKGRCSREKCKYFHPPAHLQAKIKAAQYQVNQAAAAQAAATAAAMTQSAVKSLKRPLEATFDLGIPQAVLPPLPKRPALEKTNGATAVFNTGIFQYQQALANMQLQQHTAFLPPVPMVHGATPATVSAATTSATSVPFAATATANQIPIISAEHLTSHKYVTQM
Assay: qHTS Assay for Inhibitors of MBNL1-poly(CUG) RNA binding
Settings: TR-FRET MBNL1-His/biotin-(CUG)12 binding, 665/545 ratio; series mostly up to 57.5 µM
How it was run: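 TR-FRET between His-tagged MBNL1 and biotin-(CUG)12 RNA, detected with Tb anti-His antibody (0.055 ng/ul) and streptavidin-XL665 (5 nM), 60 min at room temperature. Compounds titrated 92 nM to 58 uM; 665/545 nm ratio normalized to buffer and complex controls.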
Potency means the concentration at half of the fitted maximal effect; tags describe the fitted curve by direction and shape or compound fluorescence and quenching.

Structure (SMILES) | Potency
CN(C)CCCN1C(=O)CSC1c1ccc([N+](=O)[O-])cc1 (stereo unspecified) | inconclusive: 14.1 µM [quencher, side channel, partial curve]
Cc1cc2cc(C#N)c(N3CCN(S(C)(=O)=O)CC3)nc2cc1C | inconclusive: 0.158 µM [quencher, side channel, full curve, poor fit]
CCN(CC)CCOC(=O)c1ccc(NC(=O)CCCN2C(=O)/C(=C\c3cccs3)SC2=S)cc1 | inconclusive: 14.1 µM [quencher, side channel, partial curve]
O=C(Nc1cccc2ccccc12)c1cccc([N+](=O)[O-])c1 | inconclusive: 10 µM [quencher, side channel, partial curve]
CCOC(=O)COn1c(=O)c(-c2cc3ccccc3o2)[n+]([O-])c2ccccc21 | inconclusive: 10 µM [quencher, side channel, partial curve]
CCCCOC(=O)CSc1n[nH]c(=O)[nH]c1=O | inactive
O=[N+]([O-])c1nn(-c2cccc(Cl)c2)n(O)c1=NCc1cccnc1 | inconclusive: 28.2 µM [quencher, side channel, partial curve]
CCn1c(=O)c(C(=O)CN(C)Cc2cccc(OC)c2OC)c(N)n(Cc2ccccc2)c1=O | inactive
O=C(Cn1nc2ccccc2n1)N/N=C/c1cc([N+](=O)[O-])ccc1O | inconclusive: 39.8 µM [quencher, side channel, single point]
Cc1noc(NS(=O)(=O)c2ccc(N/C=C\C(=O)c3ccccc3)cc2)c1C | inconclusive: 2.51 µM [quencher, side channel, full curve]
CSc1nnc2c(n1)OC(c1ccc(C(=O)O)cc1)N(C(C)=O)c1ccccc1-2 (stereo unspecified) | inconclusive: 25.1 µM [quencher, side channel, partial curve]
NC(Cc1ccc2nonc2c1)C(=O)O (stereo unspecified) | inconclusive: 39.8 µM [quencher, single point]
CCCn1c2ccccc2c2nnc(SCC(=O)OC)nc21 | inconclusive: 15.8 µM [quencher, partial curve]
COC(=O)CCCC1=CC2=CC(=O)C(C)(OC(=O)c3cccs3)C(=O)C2=CN1CCN1CCOCC1 (stereo unspecified) | inconclusive: 39.8 µM [quencher, single point]
Cn1c(-c2cccc([N+](=O)[O-])c2)cnc1NCc1cccc(F)c1 | inconclusive: 14.1 µM [quencher, side channel, partial curve]
Cc1ccc(Cl)cc1NC(=O)c1ccc(Cn2cc(Cl)cn2)cc1 | inconclusive: 6.31 µM [quencher, side channel, single point]
